Measured values taken from PubChem BioAssay AID720709 (National Center for Advancing Translational Sciences (NCATS), 2013).
The campaign covered roughly 360,000 compounds. About 520 (0.14%) were called active. The shares of active, inactive and inconclusive entries below differ from those in the screen. Calls come from the whole dose curve; as a rule, active = well fitted inhibition curve with a large enough effect; inconclusive = small, poorly fitted or top-dose-only effect; inactive = no such curve, though single readings can be large or run the other way. Potencies of inconclusive entries are doubtful fits and often do not repeat.

Target: Rap guanine nucleotide exchange factor 3 (Homo sapiens) (UniProt O95398)
Sequence of UniProt O95398 (O95398 whole entry, looked up): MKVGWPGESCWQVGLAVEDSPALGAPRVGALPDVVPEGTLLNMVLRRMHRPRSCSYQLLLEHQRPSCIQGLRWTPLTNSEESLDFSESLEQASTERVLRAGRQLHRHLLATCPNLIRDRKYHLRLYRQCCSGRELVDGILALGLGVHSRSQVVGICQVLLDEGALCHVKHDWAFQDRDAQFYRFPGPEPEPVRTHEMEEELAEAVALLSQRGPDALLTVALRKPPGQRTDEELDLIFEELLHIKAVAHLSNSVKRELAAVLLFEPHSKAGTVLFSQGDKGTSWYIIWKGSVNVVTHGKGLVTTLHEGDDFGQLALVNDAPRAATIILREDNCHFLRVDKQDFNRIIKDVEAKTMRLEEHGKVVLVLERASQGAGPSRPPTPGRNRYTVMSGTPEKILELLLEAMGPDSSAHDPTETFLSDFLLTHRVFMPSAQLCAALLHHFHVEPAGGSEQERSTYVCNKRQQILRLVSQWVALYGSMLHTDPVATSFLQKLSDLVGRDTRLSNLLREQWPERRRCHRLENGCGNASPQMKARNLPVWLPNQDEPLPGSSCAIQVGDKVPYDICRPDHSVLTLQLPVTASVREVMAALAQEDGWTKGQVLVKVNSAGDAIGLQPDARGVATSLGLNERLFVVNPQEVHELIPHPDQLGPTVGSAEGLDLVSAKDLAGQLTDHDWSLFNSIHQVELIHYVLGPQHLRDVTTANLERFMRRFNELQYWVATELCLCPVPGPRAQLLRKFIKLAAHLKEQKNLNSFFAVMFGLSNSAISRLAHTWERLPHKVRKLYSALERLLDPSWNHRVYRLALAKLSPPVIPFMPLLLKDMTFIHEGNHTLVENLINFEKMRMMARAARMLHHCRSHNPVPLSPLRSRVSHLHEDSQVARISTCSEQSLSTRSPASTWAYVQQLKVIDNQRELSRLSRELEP
Test: qHTS for Antagonist of cAMP-regulated guanine nucleotide exchange factor 3 (EPAC1): primary screen; note: nearly all actives have a fitted effect of over 50% in size;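 for activity change, negative = inhibition: plate controls were vehicle for no effect and positive control for full effect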
Details: EPAC1 GEF assay, Rap1b-BODIPY-GDP exchange fluorescence; activity change, negative = inhibition: at 115 µM (top of the series)
Potency is the fitted concentration of half-maximal effect; tags give direction and shape of the fitted curve.

Activity change, negative = inhibition, inconclusive:
CC1CCN(C(=O)Cn2c3ccccc3c3nc4n(c(=O)c32)CCCS4)CC1 7.86% [inhibitor]

Activity change, negative = inhibition, inactive:
CC(C)C[C@H]1COc2cccc(N3CCSCC3)c2S(=O)(=O)N1 -10.4%, Cc1nc2[nH]c(=S)[nH]c(=O)c2nc1C -1.03%, COc1ccc(CNC(=O)C[C@@H]2C=C[C@@H](NS(=O)(=O)c3cccc(OC)c3)[C@@H](CO)O2)cc1 0.544%, CC1(C)Cc2c(sc(NC(=O)c3ccc(C(=O)c4ccccc4)cc3)c2C#N)C(C)(C)N1 8.4%, CC(=O)Nc1ccc(NC(=O)c2nc(S(=O)(=O)Cc3ccccc3)ncc2Cl)cc1 -13.4%, Oc1ccc(Cl)cc1CNc1cnc2ccccc2c1 8.11%, CCCCNC(=O)Cn1nc(Cc2ccncc2)c2ccccc2c1=O 7.46%, CCOc1nc(OCC)nc(N2CCC(C)CC2)n1 -5.36%, Cc1ccc(-c2ccccc2NC(=O)CCl)o1 -0.43%, Cc1ccc(C)n1-c1nc(=S)[nH][nH]1 6.02%, CCOC(=O)c1c(C)[nH]c(O)c1C=Nc1ccccc1 -3.24%, NC(=O)C1CCN(C(=O)CCSc2ccc(Cl)cc2)CC1 1.43%, O=C(c1cc2ncc(Br)cn2n1)N1CCN(C(=O)c2ccco2)CC1 -4.22%, N#C/C(=C\c1ccc(N2CCOCC2)o1)C(=O)NCCc1ccccc1 -5.57%, C=CCNC(=O)CN1CCC(c2nc3cc(C)c(C)cc3[nH]2)CC1 -20.4%, O=C(c1ccccc1)N1CCc2[nH]nc(-c3ccccc3)c2C1 -6.98%, COc1cc(CNc2ccc(N3CCCC3)cc2)cc(Cl)c1OC -5.23%, COc1ccc(OC)c(CN2C(=O)CSCC2(C)C(=O)Nc2c(C)cccc2C)c1 (stereo unspecified) -12.6%, CCCCn1c(N)c(N(CCOC)C(=O)c2ccc(F)c(S(=O)(=O)N3CCOCC3)c2)c(=O)[nH]c1=O -0.383%

Potency, inconclusive:
COc1ccc(NC(=O)Cn2cc(S(=O)(=O)Cc3ccccc3)c3ccccc32)c(OC)c1 50.1 µM [inhibitor, partial curve], COc1cccc(-c2cc(C(=O)Nc3cccnc3)c3ccccc3n2)c1 70.8 µM [inhibitor, partial curve], CCCCCCOc1ccc(-c2ccc(C#N)cn2)cc1 8.91 µM [inhibitor, partial curve], COCCCNC(=O)C[C@@H]1C[C@@]2(C(=O)OC)CCCCC=C2N(Cc2cccc3ccccc23)C1=O 89.1 µM [inhibitor, single point], CC(C)(C)c1cc(S(=O)(=O)CCc2ccccn2)cc(C(C)(C)C)c1F 50.1 µM [inhibitor, partial curve], CCn1c(SCC(=O)Nc2ccc3c(c2)c2ccccc2n3CC)nnc1-c1ccco1 35.5 µM [inhibitor, full curve], CC(C)C(NC(=O)CN1C(=O)c2cccc3cccc1c23)C(C)C 35.5 µM [inhibitor, partial curve], O=C(CCc1ccccc1)NNC(=O)c1ccc(NC(=O)c2ccccc2)cc1 79.4 µM [inhibitor, partial curve, poor fit], O=C(COC(=O)C1CCN(S(=O)(=O)c2cccs2)CC1)c1ccccc1 100 µM [inhibitor, single point], CN(C)c1c([N+](=O)[O-])cc2[nH]c(=O)[nH]c2c1[N+](=O)[O-] 44.7 µM [inhibitor, full curve, poor fit], COc1ccc(-c2onc3ccc(C(=O)/C=C/N(C)C)cc23)cc1 70.8 µM [inhibitor, single point], O=S(=O)(NC(=NCCc1ccc(Cl)cc1)c1ccccc1Cl)c1cccs1 39.8 µM [inhibitor, full curve], COc1ccc(N2C(=O)c3ccccc3C(C)(C)C2=O)cc1 3.55 µM [inhibitor, full curve, poor fit], NC(=O)c1cc2ccccc2o/c1=N\NC(=O)c1ccncc1 79.4 µM [inhibitor, single point], O=C(Nc1ccccn1)c1ccc(Cl)c(S(=O)(=O)N2CCCCCC2)c1 44.7 µM [inhibitor, partial curve], COc1cc(/C=C2\SC(=Nc3cccnc3)NC2=O)cc(OC)c1OC 100 µM [inhibitor, single point], Cc1nnc(N/N=C/c2cc(C)n(-c3ccc(F)cc3)c2C)n1N 89.1 µM [inhibitor, single point], Cc1[nH][nH]c(=O)c1C(c1ccc(-c2cccc(Cl)c2)o1)c1c(C)[nH][nH]c1=O 79.4 µM [inhibitor, partial curve], O=C(CCl)Nc1cc(S(=O)(=O)N2CCCCCC2)ccc1Cl 100 µM [inhibitor, partial curve, poor fit], CCOc1ccc(C(C(=O)NCC2CCCO2)N(C(=O)c2snc(C(N)=O)c2N)c2ccc(F)cc2)cc1 (stereo unspecified) 39.8 µM [inhibitor, partial curve], CC(C)(C)c1ccc(C(=O)NCCC(=O)Nc2ccc(S(=O)(=O)Nc3nccs3)cc2)cc1 44.7 µM [inhibitor, partial curve], COc1ccc2cc(CCN3C(=O)c4ccccc4C3=O)c(=O)[nH]c2c1 70.8 µM [inhibitor, single point], COc1ccc2nc(SCC(=O)Nc3ccccc3OC)[nH]c2c1 3.55 µM [inhibitor, full curve, poor fit], CCOC(=O)[C@@H]1[C@H]2COc3cc(OC)ccc3[C@H]2N2C(=O)N(c3ccc(C(F)(F)F)cc3)C(=O)[C@]12C 79.4 µM [inhibitor, single point], COc1cccc(CNS(=O)(=O)c2cn(C)cn2)c1 100 µM [inhibitor, partial curve], Cn1c(N)c(C(=O)CSc2nnc(-c3c[nH]c4ccccc34)n2C2CC2)c(=O)[nH]c1=O 79.4 µM [inhibitor, single point], CCCc1cc(=O)[nH]c(SCc2cc(=O)oc3cc(C)c(C(C)C)cc23)n1 100 µM [inhibitor, partial curve], Cc1ccc(NC(=O)C(=O)c2c(-c3ccccc3)cc3ccccn23)cc1S(=O)(=O)N1CCOCC1 39.8 µM [inhibitor, single point], CC(C)Sc1nnc([C@H](Cc2c[nH]c3ccccc23)NC(=O)OC(C)(C)C)o1 79.4 µM [inhibitor, partial curve], CCOc1ccc(NC(=O)c2sc3nc(N4CCOCC4)c4c(c3c2N)CC(C)(C)OC4)cc1 8.91 µM [inhibitor, full curve], Cc1cccc(OCC(=O)N(Cc2ccc(F)cc2)C2CCS(=O)(=O)C2)c1C (stereo unspecified) 89.1 µM [inhibitor, single point], Cc1cccc(N2CN(Cc3cccnc3)CNC2=S)c1C 3.16 µM [inhibitor, full curve, poor fit], O=c1[nH][nH]c(=O)c2c1[nH]c(=S)n2Cc1ccccc1 89.1 µM [inhibitor, single point], CC(=O)Nc1cccc(C(=O)OCC(=O)c2ccc(S(=O)(=O)N3CCCCC3)cc2)c1 89.1 µM [inhibitor, single point], C/C(=N/NC(=O)CNC(=O)C(c1ccccc1)c1ccccc1)c1ccco1 22.4 µM [inhibitor, single point], COc1cc(/C=C2\SC(=S)N(CCC(=O)NCCc3ccccc3)C2=O)cc(OC)c1OC 28.2 µM [inhibitor, partial curve], COc1cccc(S(=O)(=O)NCc2ccc(C(=O)N3CCN(Cc4ccccc4)CC3)cc2)c1 28.2 µM [inhibitor, single point], COc1ccc(N2C(=O)CSC23C(=O)N(CC(=O)NC2CCCC2)c2ccccc23)cc1 (stereo unspecified) 39.8 µM [inhibitor, single point], O=C(Cn1nnc(-c2cc(C(F)(F)F)cc(C(F)(F)F)c2)n1)NNC(=S)Nc1ccc(Cl)cc1 79.4 µM [inhibitor, partial curve], Cc1ccc(NC(=O)Cn2c(=O)c3cccn3c3ccccc32)c(Cl)c1 79.4 µM [inhibitor, single point], COCCCN1C(=O)C(CC(=O)NCc2cccc3ccccc23)CC(C(=O)N2CCCCCC2)=C1C (stereo unspecified) 6.27 µM [inhibitor, partial curve, poor fit], COc1ccc2c(c1)cc(C(=O)N/N=C/c1c(O)c(C(=O)O)cc3ccccc13)n2C 89.1 µM [inhibitor, single point], COC(=O)c1ccc(CNC(=O)COC(=O)C23CC4CC(CC(C4)C2)C3)cc1 79.4 µM [inhibitor, partial curve], O=C(NC(Cc1ccc(O)cc1)C(=O)N=Nc1c(O)[nH]c2ccccc12)c1ccccc1 (stereo unspecified) 39.8 µM [inhibitor, single point]

Potency, active:
O=C(CSc1nc(-c2ccc(F)cc2)nc2ccc(F)cc12)Nc1cccc(C(=O)O)c1 70.8 µM, Cc1ccc(NC2C(=O)NC(=O)NC2=O)cc1 79.4 µM
